# The supplement of paper PMC8728848
# The list shows a part of the results.
# Columns and labels:
# Assay in all cases: glycan array binding signal (z-score within array); higher = stronger binding
# Conditions in all cases: glycan notation: IUPAC condensed, linker removed
# [1] = biological target: Man(a1-2)Man(a1-3)[Man(a1-2)Man(a1-6)]Man
# How it was run: (§1)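 Glycan array data were curated from 3228 arrays in the Consortium for Functional Glycomics database and kept only where the protein sequence was available. Glycan names were converted to IUPAC-condensed notation, and columns mapping to the same glycan were averaged. The binding signal is a within-array Z-score, averaged across arrays of the same protein sequence at different concentrations or buffers and across linkers. Negative Z-scores can be read as non-binding.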
# [2] = biological target: Man(a1-2)Man(a1-3)[Man(a1-2)Man(a1-6)]Man(a1-6)[Man(a1-2)Man(a1-2)Man(a1-3)]Man
# How it was run: as §1
# [3] = biological target: Man(a1-2)Man(a1-3)[Man(a1-2)Man(a1-6)]Man(a1-6)[Man(a1-2)Man(a1-2)Man(a1-3)]Man(b1-4)GlcNAc(b1-4)GlcNAc
# How it was run: as §1
# [4] = biological target: Man(a1-2)Man(a1-3)[Man(a1-6)]Man(a1-6)[Man(a1-2)Man(a1-3)]Man(b1-4)GlcNAc(b1-4)GlcNAc
# How it was run: as §1
# [5] = biological target: Man(a1-2)Man(a1-6)[Man(a1-3)]Man(a1-6)[Man(a1-2)Man(a1-2)Man(a1-3)]Man
# How it was run: as §1
# [6] = biological target: Man(a1-2)Man(a1-6)[Man(a1-3)]Man(a1-6)[Man(a1-2)Man(a1-2)Man(a1-3)]Man(b1-4)GlcNAc(b1-4)GlcNAc
# How it was run: as §1
# Man(a1-3)[Man(a1-6)]Man = biological target: Man(a1-3)[Man(a1-6)]Man
# How it was run: as §1
# [7] = biological target: Man(a1-3)[Man(a1-6)]Man(a1-6)[Man(a1-2)Man(a1-3)]Man(b1-4)GlcNAc(b1-4)GlcNAc
# How it was run: as §1
# [8] = biological target: Man(a1-3)[Man(a1-6)]Man(a1-6)[Man(a1-3)]Man
# How it was run: as §1
# [9] = biological target: Man(a1-3)[Man(a1-6)]Man(a1-6)[Man(a1-3)]Man(b1-4)GlcNAc(b1-4)GlcNAc
# How it was run: as §1
# [10] = biological target: Man(a1-3)[Man(a1-6)]Man(b1-4)GlcNAc(b1-4)GlcNAc
# How it was run: as §1
# [11] = biological target: Man(a1-3)[Man(a1-6)]Man(b1-4)GlcNAc(b1-4)[Fuc(a1-6)]GlcNAc
# How it was run: as §1
# Man(a1-6)Man = biological target: Man(a1-6)Man
# How it was run: as §1
# Man(b1-4)GlcNAc = biological target: Man(b1-4)GlcNAc
# How it was run: as §1
# MurNAc(b1-4)GlcNAc = biological target: MurNAc(b1-4)GlcNAc
# How it was run: as §1
# Neu5Ac(a2-3)Gal = biological target: Neu5Ac(a2-3)Gal
# How it was run: as §1
# [12] = biological target: Neu5Ac(a2-3)Gal(b1-3)GalNAc
# How it was run: as §1
# [13] = biological target: Neu5Ac(a2-3)Gal(b1-3)GalNAc(b1-3)Gal(a1-4)Gal(b1-4)Glc
# How it was run: as §1
# [14] = biological target: Neu5Ac(a2-3)Gal(b1-3)GalNAc(b1-4)Gal(b1-4)Glc
# How it was run: as §1
# [15] = biological target: Neu5Ac(a2-3)Gal(b1-3)GalNAc(b1-4)[Neu5Ac(a2-3)]Gal(b1-4)Glc
# How it was run: as §1
# [16] = biological target: Neu5Ac(a2-3)Gal(b1-3)GalNAc(b1-4)[Neu5Ac(a2-8)Neu5Ac(a2-3)]Gal(b1-4)Glc
# How it was run: as §1
# [17] = biological target: Neu5Ac(a2-3)Gal(b1-3)GalNAc6S
# How it was run: as §1
# [18] = biological target: Neu5Ac(a2-3)Gal(b1-3)GlcNAc
# How it was run: as §1
# [19] = biological target: Neu5Ac(a2-3)Gal(b1-3)GlcNAc(b1-2)Man
# How it was run: as §1
# [20] = biological target: Neu5Ac(a2-3)Gal(b1-3)GlcNAc(b1-2)Man(a1-3)[GlcNAc(b1-4)][Neu5Ac(a2-3)Gal(b1-3)GlcNAc(b1-2)Man(a1-6)]Man(b1-4)GlcNAc(b1-4)GlcNAc
# How it was run: as §1
# [21] = biological target: Neu5Ac(a2-3)Gal(b1-3)GlcNAc(b1-2)Man(a1-3)[Neu5Ac(a2-3)Gal(b1-3)GlcNAc(b1-2)Man(a1-6)]Man(b1-4)GlcNAc(b1-4)GlcNAc
# How it was run: as §1
# [22] = biological target: Neu5Ac(a2-3)Gal(b1-3)GlcNAc(b1-2)[Neu5Ac(a2-3)Gal(b1-3)GlcNAc(b1-4)]Man(a1-6)[Neu5Ac(a2-3)Gal(b1-3)GlcNAc(b1-2)Man(a1-3)]Man(b1-4)GlcNAc(b1-4)GlcNAc
# How it was run: as §1
# [23] = biological target: Neu5Ac(a2-3)Gal(b1-3)GlcNAc(b1-3)Gal(b1-3)GlcNAc
# How it was run: as §1
# [24] = biological target: Neu5Ac(a2-3)Gal(b1-3)GlcNAc(b1-3)Gal(b1-4)GlcNAc
# How it was run: as §1
# [25] = biological target: Neu5Ac(a2-3)Gal(b1-3)GlcNAc(b1-3)GalNAc
# How it was run: as §1
# [26] = biological target: Neu5Ac(a2-3)Gal(b1-3)GlcNAc(b1-6)GalNAc
# How it was run: as §1
# [27] = biological target: Neu5Ac(a2-3)Gal(b1-3)GlcNAc6S
# How it was run: as §1
# [28] = biological target: Neu5Ac(a2-3)Gal(b1-3)[Fuc(a1-4)]GlcNAc
# How it was run: as §1
# [29] = biological target: Neu5Ac(a2-3)Gal(b1-3)[Fuc(a1-4)]GlcNAc(b1-3)Gal(b1-3)[Fuc(a1-4)]GlcNAc
# How it was run: as §1
# [30] = biological target: Neu5Ac(a2-3)Gal(b1-3)[Fuc(a1-4)]GlcNAc(b1-3)Gal(b1-4)[Fuc(a1-3)]GlcNAc
# How it was run: as §1
# [31] = biological target: Neu5Ac(a2-3)Gal(b1-3)[GlcNAc(b1-6)]GalNAc
# How it was run: as §1
# [32] = biological target: Neu5Ac(a2-3)Gal(b1-3)[Neu5Ac(a2-6)]GalNAc
# How it was run: as §1
# [33] = biological target: Neu5Ac(a2-3)Gal(b1-3)[Neu5Ac(a2-6)]GlcNAc(b1-3)[Fuc(a1-3)[Gal(b1-4)]GlcNAc(b1-6)]Gal(b1-4)Glc
# How it was run: as §1
# [34] = biological target: Neu5Ac(a2-3)Gal(b1-3)]Neu5Ac(a2-3)Gal(b1-4)]GlcNAc
# How it was run: as §1
# Neu5Ac(a2-3)Gal(b1-4)Glc = biological target: Neu5Ac(a2-3)Gal(b1-4)Glc
# How it was run: as §1
# [35] = biological target: Neu5Ac(a2-3)Gal(b1-4)GlcNAc
# How it was run: as §1
# [36] = biological target: Neu5Ac(a2-3)Gal(b1-4)GlcNAc(b1-2)Man
# How it was run: as §1
# [37] = biological target: Neu5Ac(a2-3)Gal(b1-4)GlcNAc(b1-2)Man(a1-3)[GlcNAc(b1-4)][Neu5Ac(a2-3)Gal(b1-4)GlcNAc(b1-2)Man(a1-6)]Man(b1-4)GlcNAc(b1-4)GlcNAc
# How it was run: as §1
# [38] = biological target: Neu5Ac(a2-3)Gal(b1-4)GlcNAc(b1-2)Man(a1-3)[Neu5Ac(a2-3)Gal(b1-4)GlcNAc(b1-2)Man(a1-6)]Man(b1-4)GlcNAc(b1-4)GlcNAc
# How it was run: as §1
# [39] = biological target: Neu5Ac(a2-3)Gal(b1-4)GlcNAc(b1-2)Man(a1-3)[Neu5Ac(a2-3)Gal(b1-4)GlcNAc(b1-2)Man(a1-6)]Man(b1-4)GlcNAc(b1-4)[Fuc(a1-6)]GlcNAc
# How it was run: as §1
binder,measurement,setting,value
"CGL (Crenomytilus grayanus), H2FH31 (protein) MTTFLIKHKASGKFLHPYGGSSNPANNTKLVLHSDIHERMYFQFDVVDERWGYIKHVASGKIVHPYGGQANPPNETNMVLHQDRHDRALFAMDFFNDNIMHKGGKYIHPKGGSPNPPNNTETVIHGDKHAAMEFIFVSPKNKDKRVLVYA",glycan array binding signal (z-score),[1],-0.443
same,glycan array binding signal (z-score),[2],-0.438
same,glycan array binding signal (z-score),[3],-0.372
same,glycan array binding signal (z-score),[4],-0.384
same,glycan array binding signal (z-score),[5],-0.435
same,glycan array binding signal (z-score),[6],-0.357
same,glycan array binding signal (z-score),Man(a1-3)[Man(a1-6)]Man,-0.291
same,glycan array binding signal (z-score),[7],-0.278
same,glycan array binding signal (z-score),[8],-0.36
same,glycan array binding signal (z-score),[9],-0.328
same,glycan array binding signal (z-score),[10],-0.395
same,glycan array binding signal (z-score),[11],-0.379
same,glycan array binding signal (z-score),Man(a1-6)Man,-0.367
same,glycan array binding signal (z-score),Man(b1-4)GlcNAc,-0.269
same,glycan array binding signal (z-score),MurNAc(b1-4)GlcNAc,-0.335
same,glycan array binding signal (z-score),Neu5Ac(a2-3)Gal,-0.357
same,glycan array binding signal (z-score),[12],-0.327
same,glycan array binding signal (z-score),[13],-0.288
same,glycan array binding signal (z-score),[14],-0.332
same,glycan array binding signal (z-score),[15],-0.236
same,glycan array binding signal (z-score),[16],-0.346
same,glycan array binding signal (z-score),[17],-0.332
same,glycan array binding signal (z-score),[18],-0.281
same,glycan array binding signal (z-score),[19],-0.314
same,glycan array binding signal (z-score),[20],-0.406
same,glycan array binding signal (z-score),[21],-0.382
same,glycan array binding signal (z-score),[22],-0.329
same,glycan array binding signal (z-score),[23],-0.388
same,glycan array binding signal (z-score),[24],-0.356
same,glycan array binding signal (z-score),[25],-0.337
same,glycan array binding signal (z-score),[26],-0.234
same,glycan array binding signal (z-score),[27],-0.349
same,glycan array binding signal (z-score),[28],-0.362
same,glycan array binding signal (z-score),[29],-0.359
same,glycan array binding signal (z-score),[30],-0.273
same,glycan array binding signal (z-score),[31],-0.485
same,glycan array binding signal (z-score),[32],-0.331
same,glycan array binding signal (z-score),[33],-0.271
same,glycan array binding signal (z-score),[34],-0.301
same,glycan array binding signal (z-score),Neu5Ac(a2-3)Gal(b1-4)Glc,-0.344
same,glycan array binding signal (z-score),[35],-0.303
same,glycan array binding signal (z-score),[36],-0.261
same,glycan array binding signal (z-score),[37],-0.349
same,glycan array binding signal (z-score),[38],-0.323
same,glycan array binding signal (z-score),[39],-0.389
